B1: unnamed (peptide)
chain: LPRLTPPVL
B2: unnamed (peptide)
chain: APRKGTVWSL
B3: unnamed (peptide)
chain: APAGLPRETL
B4: unnamed (peptide)
chain: SPLPSRTGSL
B5: unnamed (peptide)
chain: VPRSASVLLL
B6: unnamed (peptide)
chain: RPDYRNITF
B7: unnamed (peptide)
chain: SPSPVLRLVL
B8: unnamed (peptide)
chain: MPSFSKIGGIL
B9: unnamed (peptide)
chain: QPHLVNIQF
B10: unnamed (peptide)
chain: APVGNQPPVL
B11: unnamed (peptide)
chain: WPKDVGIVAL
B12: unnamed (peptide)
chain: LVRPVFGEL
B13: unnamed (peptide)
chain: NPRNTEAVTL
B14: unnamed (peptide)
chain: KPYGPMSVGL
B15: unnamed (peptide)
chain: NPMVTGTSV
B16: unnamed (peptide)
chain: APRPFPEVSL
B17: unnamed (peptide)
chain: KPRNVVFVDM
B18: unnamed (peptide)
chain: IPMTGKPSL
B19: unnamed (peptide)
chain: RPSLLPLH
B20: unnamed (peptide)
chain: APRTPHFDVI
B21: unnamed (peptide)
chain: APKRPPSAF
B22: unnamed (peptide)
chain: GPFPGKFNEV
B23: unnamed (peptide)
chain: SPRAPVQVI

Whole data set: some 1,400 sequences, median “thermal melting temperature (Tm) of peptide-HLA complex” near 60, cut for the lowest 2% near 45. The list shows a part of the results.
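Further: cell lysates heated 10 min at 37–73 °C, remaining pHLA pulled down with pan-class I antibody, peptides quantified by DIA-MS versus 37 °C, Tm where half the complex is lost.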

This experiment addresses HLA-B*07:02. As to the kind of experiment: thermal melting temperature (Tm) of peptide-HLA complex; higher = more thermostable pHLA complex. The conditions noted are these: C1R-B*07:02.
B1 showed a thermal melting temperature of 62.1 °C.
Turning to B2, the thermal melting temperature came out at 61.5 °C.
To B3 belongs 58.1 °C; to B4, 50.1 °C; to B5, 61.9 °C.
To B6 belongs 61.7 °C.
Under B7 stands 59.6 °C.
Take B8: the thermal melting temperature worked out at 62.2 °C.
Under B9 stands 41.6 °C; under B10, 58.6 °C.
Under B11 stands 63.1 °C; under B12, 66 °C; under B13, 56.8 °C.
To B14 belongs 57.4 °C; to B15, 56.3 °C.
The sequence B16 registered a thermal melting temperature of 63.5 °C.
In turn, B17 yielded a thermal melting temperature of 59.4 °C.
Under B18 stands 61.3 °C; under B19, 61.5 °C.
To B20 belongs 60.6 °C; to B21, 62.6 °C.
Under B22 stands 55 °C; under B23, 59.3 °C.

Source of the values: the supplement of paper PMC7726561.
